Consider 57 compounds from ChEMBL document CHEMBL1201862, “PubChem BioAssay data set” (2004).

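In this assay, cells in 96-well plates receive the compound at five concentrations for 48 hours. Endpoints are linearly interpolated between the surrounding concentrations. At the GI50, growth is halved.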 Activity calls are given as the source filed them. Cut-off read from the data, not from the text of the source: active = GI50 up to about 1.1 µM and inactive = higher.

The assay deals with NCI-H322M. The experiment in a line: NCI-60 cell line screen, 48 h.
On to `Nc1nc(Cl)nc2c1ncn2C1CCC(CO)O1` (configuration not stated), for which the GI50 is inactive: > 100 µM. `CCOC(=O)c1c2c(n(-c3ccc(OC)cc3)c1C)C(=O)C(=O)c1ccccc1-2`: the GI50 was inactive: 1.77 µM. To `COc1cccc(/C=C2\CCC(CN(C)C)C2=O)c1` (configuration not stated) belongs inactive: 17.1 µM; to `CN(C)CCCNC(=O)c1cccc2ccccc12`, inactive: > 100 µM; to `COc1cccc2c1C(=O)C1=C(C2=O)C(O)CC(C)(C)O1` (configuration not stated), inactive: 80 µM. Under `Cc1cn(C2CC(N)C(C(=O)O)O2)c(=O)[nH]c1=O` (configuration not stated) stands inactive: > 100 µM. Under `CCOC(=O)C12C(=O)CCN1CCc1ccccc1C2C` (configuration not stated) stands inactive: > 100 µM; under `COc1ccc(/C=C/C(C(=O)O)C(=O)O)cc1`, inactive: > 100 µM; under `COc1cc([C@@H]2c3cc4c(cc3[C@@H](Nc3ccc(/N=C\c5ccc(C(=O)O[C@@H](C(=O)O[C@H]6C[C@@]7(O)[C@@H](OC(=O)c8ccccc8)[C@@H]8[C@]9(OC(C)=O)CO[C@@H]9C[C@H](O)[C@@]8(C)C(=O)[C@H](OC(C)=O)C(=C6C)C7(C)C)[C@@H](NC(=O)c6ccccc6)c6ccccc6)cc5)cc3)[C@H]3COC(=O)[C@H]23)OCO4)cc(OC)c1O`, inactive: > 24.8 µM. As to `N#CCc1c(-c2ccccc2)n(S(=O)(=O)c2ccccc2)c2ccccc12`, the GI50 was inactive: > 100 µM. On to `C/C(CC(=O)CCCC(=O)Nc1ccc(Cl)cc1Cl)=N/NC(=O)CC#N`, for which the GI50 is inactive: > 100 µM. To `CCOP(=O)(OCC)C(c1ccc(F)cc1)N(C(=O)NC(F)(F)F)c1ccc(OC)cc1` (configuration not stated) belongs inactive: > 100 µM; to `O=[N+]([O-])c1ccc2nc3n(c2c1)C(c1c(F)cccc1F)SC3` (configuration not stated), inactive: > 100 µM. Consider `C=C(C)CNC(=S)N(N)c1ccc2ccccc2c1`, for which the GI50 was inactive: > 100 µM.

`CCCCCCCC/C=C\CCCCCCC/C=C1\C[C@](/C=C/C(=O)OC)(CO)OC1=O`: the GI50 was inactive: 13.8 µM. To `CCOC1(OCC)C2C=CC1C(COS(=O)(=O)c1ccc(C)cc1)C2COS(=O)(=O)c1ccc(C)cc1` (configuration not stated) belongs inactive: 55.2 µM. To `CCOC(=O)C1C(C)C2(C#N)C(=N)OC1(C)C2(C#N)C#N` (configuration not stated) belongs inactive: > 100 µM; to `COc1cc(C(=O)C/C(CCCC(=O)Nc2ccccc2[N+](=O)[O-])=N/NC(=O)c2cc3ccccc3cc2O)ccc1O`, inactive: 24 µM. Under `CCCc1cc(-c2ccc(-c3cc(CCC)c(C=O)[nH]3)s2)[nH]c1C=O` stands inactive: > 100 µM; under `CN1CCN(CCn2c3c4ccccc4ccc3c3oc(=O)c4ccccc4c32)CC1`, inactive: 7.16 µM. Turning to `Cn1c2cc([N+](=O)[O-])ccc2c(=O)c2c(O)cc3c(c21)C=CC(C)(C)O3`, the GI50 was inactive: > 100 µM. Under `C/C=C\C(CC(=O)OC)CC(=O)N(CCC1CN(S(=O)(=O)C(F)(F)F)c2ccccc21)Cc1ccc(OC)cc1OC` (configuration not stated) stands inactive: > 100 µM; under `CCOC(=O)C(C(=O)c1ccccc1C(=O)OC)=P(c1ccccc1)(c1ccccc1)c1ccccc1`, inactive: > 10 µM; under `O=C1CCC2(CC1)Cc1ccccc1C2O` (configuration not stated), inactive: > 100 µM. To `CCOC(=O)C(SCCO)C(C(=O)OCC)n1cc(C)c(=O)[nH]c1=O` (configuration not stated) belongs inactive: > 73.1 µM.

Take `[N-]=[N+]=NCC1OC(n2cnc3c(N)ncnc32)C2OC12` (configuration not stated): the GI50 is inactive: > 100 µM.

For `Cc1cccc(N2CCN(S(=O)(=O)c3ccc(Cl)cc3)C2=N)c1C`, the GI50 is inactive: 72.8 µM. In the case of `CC1=C(C#N)C(=C(C#N)C#N)OC1(C)Cc1ccccc1` (configuration not stated), the GI50 is inactive: 56.9 µM. For `O=[N+]([O-])c1ccc(N=P(c2ccccc2)(c2ccccc2)c2ccccc2)n2nnnc12`, the GI50 is inactive: > 100 µM. As to `COC1OC(Cn2cc([N+](=O)[O-])nc2C)C(O)C(O)C1O` (configuration not stated), the GI50 was inactive: > 100 µM.

For the compound `CC(C)CCNC(=O)c1ccc(CNC(=O)/C=C/c2cccc(Oc3ccccc3)c2)cc1`, the GI50 was inactive: 71.4 µM. Regarding `CC(C)CNC1=NCC(C)S1` (configuration not stated), the GI50 is inactive: > 100 µM.

Regarding `COC1CCC(OS(C)(=O)=O)C(CO)O1` (configuration not stated), the GI50 was inactive: > 100 µM. Take `NC(CCSCCF)C(=O)O` (configuration not stated): the GI50 was inactive: > 100 µM. To `Cc1ccc(S(=O)(=O)N(/N=C(\N)Oc2ccc(Cl)cc2)C(=N)Oc2ccc(Cl)cc2)cc1` belongs inactive: > 100 µM; to `O=C(N/C(=C\c1ccc([N+](=O)[O-])cc1)c1nc2cc(Cl)ccc2[nH]1)c1ccccc1`, inactive: 25.8 µM; to `COc1cc([C@@H]2c3cc4c(cc3[C@@H](OC(=O)c3cccc(N)c3)C3COC(=O)[C@@H]32)OCO4)cc(OC)c1O` (some centres not stated), inactive: 26.4 µM. Under `O=C(O)C1C2CC3C(OC(=O)C31)C2Br` (configuration not stated) stands inactive: > 100 µM; under `Cc1cccc(C(=O)O)c1C(=O)c1cccc2ccccc12`, inactive: > 100 µM. For `N#C/C(=C/NC(=S)Nc1ccc(S(N)(=O)=O)cc1)C(N)=O`, the GI50 is inactive: > 100 µM. To `CCN(CC)/[N+]([O-])=N/OS(=O)(=O)N(C)C` belongs inactive: > 100 µM; to `C[N+](C)(C)c1nc(N)nc2c1ncn2C1OC(CO)C(O)C1O` (configuration not stated), inactive: > 100 µM; to `NC(=S)N/N=C(/CC(=O)c1ccccc1)C(=O)Nc1ccc(Cl)c(Cl)c1`, inactive: 49.9 µM. To `N#C/C(C(=O)Nc1ccccc1)=C(/N)N1CCOCC1` belongs inactive: > 100 µM; to `Cc1sc2nc3n(c(=O)c2c1C)N=CN(c1ccccc1)C3`, inactive: > 100 µM; to `COc1ccc(/C=C/C(=O)C(C)(C)CN2CCCCC2)cc1`, inactive: 25.1 µM. Under `Cc1ccc(C)n2c1nc1cc3ccccc3cc12` stands inactive: 15.7 µM; under `NC(=O)C1=C(O)C[C@@H]2CC3Cc4cccc(O)c4C(=O)C3=C(O)[C@]2(O)C1=O` (some centres not stated), active: 0.457 µM; under `Cc1c2ccnc(O)c2cc2c(=O)c3cnccc3[nH]c12`, inactive: > 100 µM. For `CN1CCc2c3n(c4cc(Br)ccc24)[C@H](O)CCCC31` (some centres not stated), the GI50 was inactive: 3.46 µM. To `CSc1ccc(/C=C2\CNC/C(=C\c3ccc(SC)cc3)C2=O)cc1` belongs inactive: > 82.4 µM. Under `CCN(CC)C(=S)N/N=C(/C)c1cccc(/C(C)=N\NC(=S)N(CC)CC)n1` stands active: 0.91 µM. Take `CC1OC(OC2C(O[C@H]3CC[C@@H]4C(=CC[C@@H]5[C@@]4(C)C(=O)C[C@]4(C)[C@@H]([C@H](C)CC[C@@H](O)C(C)(C)O)CC[C@@]54C)C3(C)C)OC(CO)C(O)C2O)C(O)C(O)C1O` (some centres not stated): the GI50 is inactive: > 100 µM. For `O=C(NC1(c2cc3ccccc3s2)CCCCC1)C1CCC1`, the GI50 was inactive: > 100 µM. For `COc1ccc(C23OCC(Cc4cc(OC)c(OC)cc42)C3COC(C)=O)cc1OC` (configuration not stated), the GI50 is inactive: > 100 µM. To `CC1C[C@]2(C[C@@H](C)C(=O)O2)OC2CC3(C)C4CCC5C(C)(C)OC(=O)CC[C@@]56C[C@@]46CC[C@]3(C)C12` (some centres not stated) belongs inactive: > 100 µM.

Regarding `O=C(O)/C=C/c1c2ccc(=O)c(O)c-2oc2c(O)c(O)ccc12`, the GI50 was inactive: 30.1 µM.
